# ChEMBL document CHEMBL5606458, “ASAP - ZIKV NS2B-NS3 protease fluorescence single point” (2024)
# The campaign covered roughly 2,700 compounds. About 160 (5.9%) showed an effect of 50% or more. Some of the results follow. Where a SMILES comes first, the peptide text is derived from it. The star is where a group is joined. pNA = O=[N+]([O-])c1ccc(N*)cc1
# Target: Nonstructural protein 3 (Zika virus) (UniProt A0A024AXB9)
# [1] = PRVABC59, Concentration 50.0 uM, Number of replicates 1.0
# [2] = PRVABC59, Concentration 15.0 uM, Number of replicates 1.0
# [3] = PRVABC59, Concentration 10.0 uM, Number of replicates 1.0
# Chain of UniProt A0A024AXB9 (A0A024AXB9 as listed by the source): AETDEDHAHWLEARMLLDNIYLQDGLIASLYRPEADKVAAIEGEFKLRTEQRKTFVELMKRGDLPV
compound,measurement,setting,value
COc1ccc(S(=O)(=O)N[C@H]2CC[C@@H](C(=O)Nc3nc4ccccc4s3)CC2)cc1,inhibition,"PRVABC59, Concentration 49.5 uM, Number of replicates 2.0, Standard deviation 1.7845592689374732 %",0.239%
same,inhibition,"PRVABC59, Concentration 99.01 uM, Number of replicates 2.0, Standard deviation 0.4054009263448292 %",2.41%
same,inhibition,"PRVABC59, Concentration 198.0 uM, Number of replicates 2.0, Standard deviation 0.6498339345072758 %",3.56%
COc1cc(CS(=O)(=O)C[C@H]2CCCO2)nc(N2CCNCC2)n1,inhibition,"PRVABC59, Concentration 49.5 uM, Number of replicates 2.0, Standard deviation 1.8368765734625312 %",2.34%
same,inhibition,"PRVABC59, Concentration 99.01 uM, Number of replicates 2.0, Standard deviation 1.5078449779761687 %",3.44%
same,inhibition,"PRVABC59, Concentration 198.0 uM, Number of replicates 2.0, Standard deviation 2.492348660482503 %",5.1%
COc1ccc(S(=O)(=O)Nc2ccc(C(=O)O)cc2)cc1,inhibition,"PRVABC59, Concentration 49.5 uM, Number of replicates 2.0, Standard deviation 1.0137935505852833 %",2.03%
same,inhibition,"PRVABC59, Concentration 99.01 uM, Number of replicates 2.0, Standard deviation 1.063246976754026 %",4.7%
same,inhibition,"PRVABC59, Concentration 198.0 uM, Number of replicates 2.0, Standard deviation 1.989546367228998 %",3.61%
CCC(CC)N1CCN(C(=O)C2CCN(c3ccc(C=O)cc3)CC2)CC1,inhibition,[1],15.9%
CCCOc1cccc(CCNC(=O)C2CCN(c3ccc(C=O)cc3)CC2)c1,inhibition,[1],15.3%
C[C@H]1CN(C(=O)c2cc(Cl)ccc2NS(=O)(=O)c2ccc(Oc3ccccc3Cl)cc2)CCN1C(=O)OC(C)(C)C,inhibition,[2],11.1%
COc1ncc(Br)cc1NC(=O)C1CCN(c2ccc(C=O)cc2)CC1,inhibition,[1],20.2%
COC(=O)c1cncc(NC(=O)c2cc(OC)nc(N3CCNCC3)n2)c1,inhibition,"PRVABC59, Concentration 49.5 uM, Number of replicates 2.0, Standard deviation 3.1296386813485726 %",-5.04%
same,inhibition,"PRVABC59, Concentration 99.01 uM, Number of replicates 2.0, Standard deviation 2.0436234712667796 %",-3.72%
same,inhibition,"PRVABC59, Concentration 198.0 uM, Number of replicates 2.0, Standard deviation 1.6779911310650717 %",0.151%
CC(C)[C@H](NC(=O)C1CCN(c2ccc(C=O)cc2)CC1)c1ccccn1,inhibition,[3],23.4%
CC(C)n1cnnc1CCNC(=O)C1CCN(c2ccc(C=O)cc2)CC1,inhibition,[1],21.2%
C[C@@H](Cc1ccc(C(F)(F)F)cc1)NC(=O)c1cc(Cl)ccc1NS(=O)(=O)c1ccc(Oc2ccccc2Cl)cc1,inhibition,[2],26.2%
O=C(Nc1c(F)cc(F)cc1Cl)c1cc(Cl)ccc1NS(=O)(=O)c1ccc(Oc2ccccc2Cl)cc1,inhibition,[2],23.7%
CCc1nc(CCNC(=O)c2cc(Cl)ccc2NS(=O)(=O)c2ccc(Oc3ccccc3Cl)cc2)cs1,inhibition,[2],30.4%
COc1ccc([C@@H](C)NC(=O)c2cc(Cl)ccc2NS(=O)(=O)c2ccc(Oc3ccccc3Cl)cc2)cc1OC,inhibition,[2],25.3%
C[Si](C)(C)CN(Cc1ccccc1)C(=O)c1cc(Cl)ccc1NS(=O)(=O)c1ccc(Oc2ccccc2Cl)cc1,inhibition,[2],24.7%
Cn1cc(NC(=O)c2ccccc2C(F)(F)F)c(-c2ccc(CO)cc2)n1,inhibition,"PRVABC59, Concentration 49.5 uM, Number of replicates 2.0, Standard deviation 1.2953568364677661 %",-2.01%
same,inhibition,"PRVABC59, Concentration 99.01 uM, Number of replicates 2.0, Standard deviation 3.1096735084747196 %",-1.36%
same,inhibition,"PRVABC59, Concentration 198.0 uM, Number of replicates 2.0, Standard deviation 3.9065016999811366 %",-0.871%
COc1ccc(CN(C(=O)c2cc(Cl)ccc2NS(=O)(=O)c2ccc(Oc3ccccc3Cl)cc2)C2CC2)cc1,inhibition,[2],21.4%
O=C(/C=C/c1ccccc1)C(=O)N1CCOCC1,inhibition,"PRVABC59, Concentration 200.0 uM, Number of replicates 1.0",28.6%
O=C(c1cc(Cl)ccc1NS(=O)(=O)c1ccc(Oc2ccccc2Cl)cc1)N1CCN(c2ncccc2[N+](=O)[O-])CC1,inhibition,[2],17.7%
O=Cc1ccc(N2CCC(C(=O)Nc3cccc4ccc(O)cc34)CC2)cc1,inhibition,[1],42%
COc1ccc([C@@H]2CCCN2C(=O)c2cc(Cl)ccc2NS(=O)(=O)c2ccc(Oc3ccccc3Cl)cc2)cc1,inhibition,[2],12%
C[C@H](NC(=O)C1CCN(c2ccc(C=O)cc2)CC1)c1cccc2ccccc12,inhibition,[3],5.9%
COc1cc(NC(=O)c2cc(Cl)ccc2NS(=O)(=O)c2ccc(Oc3ccccc3Cl)cc2)cc(OC)c1,inhibition,[2],24.1%
CC(C)Cn1cccc(C(=O)Nc2ccncc2)c1=O,inhibition,"PRVABC59, Concentration 49.5 uM, Number of replicates 2.0, Standard deviation 4.325265790408527 %",3.56%
same,inhibition,"PRVABC59, Concentration 99.01 uM, Number of replicates 2.0, Standard deviation 0.42415753833763237 %",1.89%
same,inhibition,"PRVABC59, Concentration 198.0 uM, Number of replicates 2.0, Standard deviation 0.007608180505792547 %",1.1%
CSCC[C@H](N)C(=O)N1CCC[C@H]1C(=O)Nc1ccc([N+](=O)[O-])cc1 (H-Met-Pro-pNA),inhibition,"PRVABC59, Concentration 49.5 uM, Number of replicates 2.0, Standard deviation 0.04379462170027595 %",7.22%
same,inhibition,"PRVABC59, Concentration 99.01 uM, Number of replicates 2.0, Standard deviation 0.1465435807480143 %",14.2%
same,inhibition,"PRVABC59, Concentration 198.0 uM, Number of replicates 2.0, Standard deviation 1.7147293588002597 %",26.9%
Cc1ccccc1-c1noc(C)c1C(=O)N1CCC(n2cc(CO)nn2)CC1,inhibition,"PRVABC59, Concentration 49.5 uM, Number of replicates 2.0, Standard deviation 1.9037948950109151 %",0.455%
same,inhibition,"PRVABC59, Concentration 99.01 uM, Number of replicates 2.0, Standard deviation 2.4661894603109435 %",-0.679%
same,inhibition,"PRVABC59, Concentration 198.0 uM, Number of replicates 2.0, Standard deviation 2.12040622056229 %",-0.665%
O=Cc1ccc(N2CCC(C(=O)N3CCN(c4ncccc4[N+](=O)[O-])CC3)CC2)cc1,inhibition,[1],26.1%
O=C(NCCc1ccc2ccccc2c1)c1cc(Cl)ccc1NS(=O)(=O)c1ccc(Oc2ccccc2Cl)cc1,inhibition,[2],33.3%
O=C(NCc1c(Cl)cccc1Cl)c1cc(Cl)ccc1NS(=O)(=O)c1ccc(Oc2ccccc2Cl)cc1,inhibition,[2],42.6%
CNC(=O)c1cccc(C(=O)Nc2ccncc2C)n1,inhibition,"PRVABC59, Concentration 49.5 uM, Number of replicates 2.0, Standard deviation 2.1660905067522638 %",-1.7%
same,inhibition,"PRVABC59, Concentration 99.01 uM, Number of replicates 2.0, Standard deviation 2.255810220661481 %",-0.788%
same,inhibition,"PRVABC59, Concentration 198.0 uM, Number of replicates 2.0, Standard deviation 1.7328723600939488 %",1.3%
Cc1cc(CO)c2cccc(Cc3cccc(C(=O)N4CCCNCC4)c3)c2n1,inhibition,"PRVABC59, Concentration 49.95 uM, Number of replicates 2.0, Standard deviation 0.5715370596790117 %",-1.03%
same,inhibition,"PRVABC59, Concentration 99.9 uM, Number of replicates 2.0, Standard deviation 0.45618130389208883 %",19.9%
CC(=O)N[C@@H](CCCCN)C(=O)Nc1ccccc1Cc1cccc2c(CO)cc(C)nc12,inhibition,"PRVABC59, Concentration 49.95 uM, Number of replicates 2.0, Standard deviation 1.4556435772845158 %",-3.65%
same,inhibition,"PRVABC59, Concentration 99.9 uM, Number of replicates 2.0, Standard deviation 0.5191459981690598 %",11.6%
CN(CCO[Si](C)(C)C(C)(C)C)C(=O)c1cc(Cl)ccc1NS(=O)(=O)c1ccc(Oc2ccccc2Cl)cc1,inhibition,[2],15.3%
O=C(NCc1cc(F)c(F)c(F)c1)c1cc(Cl)ccc1NS(=O)(=O)c1ccc(Oc2ccccc2Cl)cc1,inhibition,[2],31.9%
Cc1cnccc1NC(=O)c1nn(C)c2c1CCCC2,inhibition,"PRVABC59, Concentration 49.5 uM, Number of replicates 2.0, Standard deviation 8.288338929216017 %",7.59%
same,inhibition,"PRVABC59, Concentration 99.01 uM, Number of replicates 2.0, Standard deviation 2.172556918595184 %",2.85%
same,inhibition,"PRVABC59, Concentration 198.0 uM, Number of replicates 2.0, Standard deviation 1.6680930279859854 %",5.73%
CC1(C)C[C@]1(CNC(=O)C1CCN(c2ccc(C=O)cc2)CC1)c1ccccc1,inhibition,[1],7.47%
O=C(NCCc1ccc(Cl)cc1Cl)c1cc(Cl)ccc1NS(=O)(=O)c1ccc(Oc2ccccc2Cl)cc1,inhibition,[2],27.1%
Cc1cnccc1NC(=O)c1cccc(-n2cnnn2)c1,inhibition,"PRVABC59, Concentration 49.5 uM, Number of replicates 2.0, Standard deviation 4.148081450793093 %",-4.56%
same,inhibition,"PRVABC59, Concentration 99.01 uM, Number of replicates 2.0, Standard deviation 2.8220872377424997 %",-2.1%
same,inhibition,"PRVABC59, Concentration 198.0 uM, Number of replicates 2.0, Standard deviation 5.644174285824181 %",-3.31%
Cc1cnccc1NC(=O)c1c(S(C)(=O)=O)cnn1C,inhibition,"PRVABC59, Concentration 49.5 uM, Number of replicates 2.0, Standard deviation 1.8400748659883561 %",-1.66%
same,inhibition,"PRVABC59, Concentration 99.01 uM, Number of replicates 2.0, Standard deviation 3.7772796310341294 %",-1.4%
same,inhibition,"PRVABC59, Concentration 198.0 uM, Number of replicates 2.0, Standard deviation 2.96966138269359 %",0.099%
Cc1cc(CO)c2cccc(Cc3cccc(NC(=O)[C@@H](N)CC(N)=O)c3)c2n1,inhibition,"PRVABC59, Concentration 49.95 uM, Number of replicates 2.0, Standard deviation 1.7966513683626428 %",9.82%
same,inhibition,"PRVABC59, Concentration 99.9 uM, Number of replicates 2.0, Standard deviation 0.341007791078127 %",28.2%
C[C@H](NC(=O)c1cc(Cl)ccc1NS(=O)(=O)c1ccc(Oc2ccccc2Cl)cc1)c1ccc2c(c1)CCCC2,inhibition,[2],18.7%
C[C@@H](c1ccccc1)N(Cc1ccncc1)C(=O)c1cc(Cl)ccc1NS(=O)(=O)c1ccc(Oc2ccccc2Cl)cc1,inhibition,[2],23.5%
